Source: ChEMBL document CHEMBL1157539, “Thousands of chemical starting points for antimalarial lead identification” (Nature, 2010)
In all, about 13,000 compounds were measured (“IFI”: median about 4, highest 2% from about 17 on). The list shows a part of the results.

Experiment: GSK_TCMDC: Inhibition Frequency Index (IFI). The number of non-kinase HTS assays where a compound showed > 50 % inhibition, expressed as a percentage of the number of such assays in which the compound was tested (-0 is zero)
Assay type: functional

| SMILES | IFI [%] |
| --- | --- |
| CN(CCCCNC(=O)/C=C/c1ccccc1)C1CC2(CCN(C(=O)OC(C)(C)C)CC2)c2ccccc21 (stereo not drawn) | 3.08 |
| Fc1ccc(CNc2ncc(-c3ccsc3)c(-c3nccs3)n2)cc1 | 6.74 |
| O=C(/C=C/c1ccc(Cl)c(Cl)c1)N1CCC(C(O)CN2CCC(c3c[nH]c4ccccc34)CC2)CC1 (stereo not drawn) | 9.38 |
| Cc1cnc(N2CCN(CCCN3CCCC3)CC2)nc1Oc1ccc(-n2ccnc2)cc1 | 2.86 |
| O=C(Nc1cc(F)cc(F)c1)N[C@H]1CCN(CCCCCNC(=O)C2CC2c2ccc(Cl)c(Cl)c2)C1 (stereo partly drawn) | 13.6 |
| COc1ccccc1C1CCN(Cc2csc(NC(=O)c3ccc(-c4ccc(C(F)(F)F)cc4)cc3)n2)CC1 | 8.55 |
| O=C(Nc1cc(C(F)(F)F)cc(C(F)(F)F)c1)c1cc(C(F)(F)F)cc(C(F)(F)F)c1 | 3.65 |
| N#CCCN1CCN(Cc2ccc(-c3ccc(-c4nc5cc(F)ccc5[nH]4)s3)cc2)CC1 | 6.94 |
| CCc1nc(N)nc(N)c1-c1ccc(C(C)C)cc1 | 2.29 |
| c1ccc(Oc2ccc(Nc3ccnc4c(-c5ccccn5)cccc34)cc2)cc1 | 5.88 |
| O=C(Nc1ccc(-c2ccccc2)s1)N[C@H]1CCN(Cc2ccc(OCCCN3CCCCC3)cc2)C1 | 7.14 |
| Cc1cc2cc(NC(=O)Nc3ccnc4ccccc34)ccc2n1C | 8.27 |
| COc1ccc(S(=O)(=O)NCCC2CCN(CCCCCNC(=O)C=Cc3ccc(Cl)c(Cl)c3)CC2)cc1 | 5.07 |
| CC1CCc2c(C(=O)Nc3c(F)cc(F)cc3Br)csc2C1 (stereo not drawn) | 5.71 |
| FC(F)(F)c1ccc2c(NN=Cc3cccc(Cl)c3)ccnc2c1 | 1.45 |
| c1cc(CNCc2ccc3c(c2)OCO3)cc(-c2cccc(CNc3ccc4ncccc4c3)c2)c1 | 5.07 |
| CCN(CC)CCN(Cc1ccc(-c2ccc(C(F)(F)F)cc2)cc1)C(=O)c1ccc(-c2ccc(NC(=O)OC)cc2C)cc1 | 11 |
| Cc1cccc2nc(-c3cccc(-c4ccc(NC(=O)NCc5cccc(F)c5)cc4)c3)[nH]c12 | 9 |
| Fc1ccc2[nH]c(-c3ccc(-c4ccc(CNCCc5ccncc5)cc4)cc3)nc2c1 | 11 |
| Cc1sc2ccc(Cl)cc2c1S(=O)(=O)Nc1ccc2nccc(N3CC(C)NC(C)C3)c2c1 (stereo not drawn) | 2.22 |
| CN(C)c1ccc(-c2csc(C(=O)NC3CCCCN(CCC(C)(C)C)C3)c2)cc1 (stereo not drawn) | 10.6 |
| NCCCCc1c(-c2ccc(Cl)c(Cl)c2)[nH]c2ccc(Cl)cc12 | 9.09 |

| SMILES | IFI [%] |
| --- | --- |
| Cc1cc(C2CCN(CCCCNC(=O)c3ccc(NC(=O)c4ccc(Cl)cc4)cc3)CC2)c(C)cc1OCc1cccnc1 | 3.03 |
| COc1ccc2[nH]ccc(=NN=Cc3ccc(N(C)C)cc3)c2c1 | 4.29 |
| CNC(=O)c1cnc(Nc2ccc(N3CCN(C)CC3)cc2)nc1Nc1cccc(OC(C)C)c1 | 4.48 |
| CC(Cc1ccc(COc2ccc(CC(CO)NCCc3cccc(Cl)c3)cc2)cc1)NCCc1cccc(Cl)c1 (stereo not drawn) | 16.6 |
| CC(C)(C)CC(C)(C)c1ccc(O)c(C(=O)Nc2ccc([N+](=O)[O-])cc2)c1 | 14.1 |
| Cc1cccc2nc(-c3cccc(-c4cccc(NC(=O)C(C)CN5CCN(C)CC5)c4)c3)[nH]c12 (stereo not drawn) | 0.93 |
| Cn1ccc(-c2cccc(Nc3ccnc4cc(-c5nccs5)ccc34)c2)n1 | 8.57 |
| CCN(CC)CCNC(=O)c1ccc(NC(=O)c2cc(-c3ccncc3)nc3ccccc23)cc1 | 0 |
| O=C(Nc1cccc(-c2ccc(-c3nc4cc(F)ccc4[nH]3)s2)c1)c1cccnc1 | 3.74 |
| Oc1cc(-c2cccc(C(F)(F)F)c2)nc(Nc2ccc(Cl)c(Cl)c2)n1 | 9.41 |
| O=C(N[C@@H](CC1CCCCC1)C(=O)NC1CCCCCC1)c1ccc(O)c(-c2ccc(Cl)c(Cl)c2)c1 | 1.48 |
| Cc1cccc2nc(-c3ccc(-c4cccc(NC(=O)c5cncn5C)c4)cc3)[nH]c12 | 3.6 |
| Cc1ccccc1-c1cc(=O)c2cc(NC(=O)c3cccs3)ccc2o1 | 2.13 |
| O=C(Nc1ccnc(N2CC3CC2CN3Cc2cccc(O)c2)c1)c1ccc(F)cc1 (stereo not drawn) | 2.7 |
| COc1ccccc1-c1cccc(-c2cccc(NC(=O)c3ccc([N+](=O)[O-])o3)c2)n1 | 11.9 |
| CN1CCC(C(=O)N(Cc2ccc(-c3ccc(CNCCc4ccc(S(C)(=O)=O)cc4)cn3)cc2)C2Cc3ccccc3C2)CC1 | 5.48 |
| Cc1cc(Nc2ccc(C(C)(C)C)cc2)c2[nH]ncc2n1 | 9.93 |
| C=CC[C@H](C[C@H](O)[C@H](Cc1ccccc1)NC(=O)c1ccc(-n2cccn2)cc1)C(=O)NC1CCCCC1 | 0.75 |
| O=C(NCc1ccc(Cl)c(Cl)c1)[C@H]1CNCCN1C(=O)c1ccccc1 | -0 |
| CC1CN(c2ccc3occ(C(=O)Nc4ccc(-c5ccncc5)c(Cl)c4)c3c2)CC(C)N1C (stereo not drawn) | 4.86 |
| COc1ccc2[nH]c(/C=C/c3cccc4ccc(C)nc34)nc2c1 | 6.42 |
| CC1(C)N=C(N)N=C(N)N1c1ccc(Br)cc1 | 1.42 |

| SMILES | IFI [%] |
| --- | --- |
| CCCOc1ccc(CCNCCCCNCCc2ccc(OCCC)c3ccccc23)c2ccccc12 | 12.5 |
| CCOC(=O)c1c(NC(=O)c2ccccc2)sc2c(O)c(CNC3CCCCC3)ccc12 | 1.46 |
| CCOC(=O)c1ccc(NC(=O)N[C@@H](Cc2ccccc2)C(=O)NC2CCN(Cc3ccc(O)cc3)C2)cc1 (stereo partly drawn) | 4.41 |
| COc1ccc(Nc2nc(N/N=C/c3cc(Br)ccc3O)nc(Nc3ccc([N+](=O)[O-])cc3)n2)cc1 | 3.01 |
| Oc1cccc(Nc2nc(NCc3ccccc3)c3ccccc3n2)c1 | 9.55 |
| O=C(NCCCCN1CC=C(c2ccc3c(c2OCC2CC2)CCCC3)CC1)c1ccc(-c2ccc(C(F)(F)F)cc2)cc1 | 5.22 |
| CCOC(=O)C1=C(C)N=c2sc(=Cc3cc(Cl)ccc3O)c(=O)n2C1c1cc(OC)c(OC)cc1Br (stereo not drawn) | 2.82 |
| Oc1ccc2c(c1NCC1CCCCC1)CCCC2 | 3.03 |
| O=C(c1cccs1)N1CCN(c2ccc([N+](=O)[O-])c(NC3CC3)c2)CC1 | 2.38 |
| CN1CCN(c2nsc3ccc(-c4ccc(NC(=O)Nc5ccccc5)cc4)cc23)CC1 | 10 |
| CCc1cn2c3c(cc(C(=O)N[C@@H](Cc4cccc(Cl)c4)[C@H](O)CNC4CCOCC4)cc13)N(C)S(=O)(=O)CC2 | 3.17 |
| COc1ccc(CC2(c3ccc(F)cc3)N=C(N)N(CCCc3ccc4c(c3)OCO4)C2=O)cc1 (stereo not drawn) | 6.45 |
| CN(C)CCN(C)Cc1cccc(-c2ccc3c(Nc4ccc(F)cc4Cl)ccnc3c2)c1 | 5.71 |
| O=C(NCC1CCN(CCN2CCc3ccc4c(c3C2)OCO4)CC1)c1ccc(-c2ccc(C(F)(F)F)cc2)cc1 | 15.5 |
| COC(=O)Cn1c(C2CCN(CC3CCN(C(=O)/C=C/c4ccc(Cl)c(Cl)c4)CC3)CC2)nc2ccccc21 | 1.42 |
| COc1ccc2ncc(Cl)c(N3CCC(CCNCc4ccc5c(n4)NC(=O)CS5)CC3)c2c1 | 12.9 |
| O=C(Nc1cccc(C(F)(F)F)c1)c1ccc(S(=O)(=O)NCC2CCN(CC3CCCCC3)CC2)cc1 | 12.5 |
| c1ccc(Oc2ccc(Nc3ccnc4cc(-c5ccc(CNCCN6CCOCC6)o5)ccc34)cc2)nc1 | 2.9 |
| CCn1c(Sc2ccc(C#N)c([N+](=O)[O-])c2)nnc1-c1ccc(OC)cc1 | 1.43 |
| CCC[C@@H]([C@@H](CC1CCCCC1)C(=O)N[C@H](C(=O)Nc1nccc(N)n1)C(C)(C)C)N(O)C=O | 2.86 |
| Cc1ccc(NC(=O)Nc2ccc(S(=O)(=O)c3ccc(NC(=O)Nc4ccc(C)c(Cl)c4)cc3)cc2)cc1Cl | 4.26 |
| COc1ccc(C(=O)C2CC2CN(C)CCC(O)c2ccc(Cl)c(Cl)c2)cc1 (stereo not drawn) | 3.48 |

| SMILES | IFI [%] |
| --- | --- |
| Cc1ccc(O)cc1Nc1ccnc2cc(-c3csc(CN4CCN(C)CC4)n3)ccc12 | 3.6 |
| COc1cc(Cc2cnc(N)nc2N)ccc1OCc1ccc(-c2csnn2)cc1 | 2.7 |
| CC(C)N1CCN(C(=O)c2ccc(CNCCCN3CCN(c4cccc(Cl)c4Cl)CC3)o2)CC1 | 10.8 |
| CC(=O)Nc1ncc(C(=O)Nc2cccc(-c3ccc(-c4nc5cc(F)ccc5[nH]4)cc3)c2)s1 | 8.33 |
| O=C(/C=C/C=C/c1ccccc1)NCCCCCN1CCC(c2c[nH]c3ccccc23)CC1 | 3.52 |
| Cc1cccc2nc(-c3ccc(-c4ccc(CN5CCC(CO)CC5)cc4)s3)[nH]c12 | 3.96 |
| CC1CCC(NC(=O)c2nn(-c3ccc(Cl)cc3)c(=O)c3ccccc23)CC1 (stereo not drawn) | 4.44 |
| CCOc1cc(C(=O)NCc2cccc(C(F)(F)F)c2)ccc1-c1nc2cc(Cl)ccc2[nH]1 | 0.75 |
| CCCCCN1CCC(NS(=O)(=O)c2ccc(C(=O)Nc3cccc(C(F)(F)F)c3)cc2)C1 (stereo not drawn) | 4.04 |
| O=C(NCCN1CCN(S(=O)(=O)c2ccc(OC3CCNCC3)c(Br)c2)CC1)c1ccc(Cl)c(Cl)c1 | 0.74 |
| CC(C)COc1ccc(Cl)cc1Cc1ccc(-c2nc3cc(CCN4CCCC4)ccc3[nH]2)o1 | 22.2 |
| Nc1c(Cl)cc(C(O)CNCCCCCOCCCc2ccc3ncccc3c2)cc1Cl (stereo not drawn) | 13.3 |
| Cc1ccc(-c2cc(C(=O)Nc3ccc(S(=O)(=O)N4CCCC(C)C4)cc3)[nH]n2)c(O)c1 (stereo not drawn) | 0 |
| Cn1cccc1CCNCc1ccc(-c2cccc(-c3nc4ccccc4[nH]3)c2)cc1 | 2.88 |
| CC(C)N1CCN(C(CN2CCN(CCCOc3ccccc3-c3ccccc3)CC2)c2ccc(F)cc2)CC1 (stereo not drawn) | 13.5 |
| Cc1[nH]n(-c2cccc(Cl)c2)c(=O)c1-c1ccc(Cl)cc1 | 3.03 |
| OC(Cn1ccnc1)(c1ccc(Cl)cc1Cl)C1CCCCC1 (stereo not drawn) | 3.97 |
| COCCNCc1ccc(-c2ccc3c(Nc4ccc(Cl)cc4F)ccnc3c2)o1 | 7.97 |
| Cc1cccc2nc(-c3ccc(-c4ccc(NC(=O)Nc5ccc(Cl)c(Cl)c5)cc4)s3)[nH]c12 | 4 |
| CNC(=O)c1cc(S(=O)(=O)Nc2ccc(OC)cc2)cs1 | -0 |
| CCNc1cc(CC)nc(Nc2ccc(C)cc2)n1 | 5.71 |
| COCCN1CCC(N(Cc2ccc(-c3ccc(OC(F)(F)F)cc3)cc2)C(=O)Cn2c(CCc3cccc(F)c3F)cc(=O)c3ccccc32)CC1 | 14.3 |
